Consider 96 molecules from PubChem BioAssay AID485344 (National Center for Advancing Translational Sciences (NCATS), 2010).

Screen size: about 340,000 compounds; about 6,900 (2%) were called active. Rule as the data show it: active = inhibition above about 30%; inactive = below that, where a call was filed. This is a selection; strong and weak results do not stand in their true shares. Entries without a call were filed so in the source.

This test has as its target D(2) dopamine receptor (Homo sapiens) (UniProt P14416). The test can be described thus: HTS Assay for Allosteric Antagonists of the Human D2 Dopamine Receptor: Primary Screen for Antagonists. Also: 0% is about no effect. To be noted: HEK293 TREx D2 cells, calcium flux, dopamine EC80; at 10 µM; stronger effect = higher value. In short, it runs like this: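 Compounds are added to dye-loaded, induced HEK293 T-REx cells coupled to calcium release via D2; after a 3 min kinetic read an EC80 dopamine stimulus is given and fluorescence is recorded for 3 more min.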
Sequence of UniProt P14416 (P14416 whole entry, looked up): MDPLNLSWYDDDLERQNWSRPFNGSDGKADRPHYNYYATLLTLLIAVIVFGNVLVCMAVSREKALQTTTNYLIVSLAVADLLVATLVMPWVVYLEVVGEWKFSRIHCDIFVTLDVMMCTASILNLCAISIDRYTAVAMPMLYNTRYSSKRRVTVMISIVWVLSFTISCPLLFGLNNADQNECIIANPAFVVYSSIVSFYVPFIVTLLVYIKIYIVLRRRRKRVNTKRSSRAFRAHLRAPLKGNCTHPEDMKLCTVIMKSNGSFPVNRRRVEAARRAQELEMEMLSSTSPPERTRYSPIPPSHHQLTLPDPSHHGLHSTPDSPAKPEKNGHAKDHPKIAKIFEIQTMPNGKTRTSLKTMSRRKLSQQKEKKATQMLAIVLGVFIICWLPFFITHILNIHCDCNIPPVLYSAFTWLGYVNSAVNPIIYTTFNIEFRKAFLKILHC
(Calcium assays in cells follow changes in intracellular calcium, usually with a dye or a luminescent sensor.)
Regarding `CCN(CC)c1ccc2nc3c(=O)n(C)c(=O)n(C)c3nc2c1`, the inhibition (commonly the change of the read-out against control, counted positive when it falls) was 23.2%. Take `COc1ccc(-n2ccnc(NCCc3ccc(S(N)(=O)=O)cc3)c2=O)cc1Cl`: the inhibition was -3.11%. As for `CC(C)c1ccc(NC(=O)c2cc(S(=O)(=O)NCCc3ccccc3)ccc2F)cc1`, the figure is -10.6%; as for `Cc1cccn2c(=O)cc(COc3cccc(NC(=O)Nc4cccc(Cl)c4)c3)nc12`, -16.1%. For `O=C1Cc2cc(S(=O)(=O)Nc3cccc(C(F)(F)F)c3)cc3c2N1CCC3`, the inhibition is 7.34%. Take `Cc1sc(NC(=O)c2cccs2)c(C(=O)OC(C)C)c1C`: the inhibition was active: 31.3%. Take `COc1ccc(C(C)C)cc1S(=O)(=O)NCCc1c(C)[nH]c2c(Cl)cccc12`: the inhibition amounted to 9.75%. With `C[C@H](NC(=O)OC(C)(C)C)c1nnc(SCc2ccc(Cl)cc2Cl)o1`, the inhibition is -7.97%. Take `CCOC(=O)C(Cc1ccccc1)NC(=O)Cn1nnc(-c2ccc(C)cc2)n1` (stereo unspecified): the inhibition amounted to 8.13%. For `CN(C)S(=O)(=O)N(CC(=O)NCCSCc1ccc(Cl)cc1Cl)c1ccccc1` the value was 5.98%; for `CSc1ccc(CCNC(=O)C2CCCN(S(=O)(=O)N(C)c3ccc(F)cc3)C2)cc1` (stereo unspecified), -5.31%; for `COc1ccccc1NC(=O)Cn1c(=O)n(C)c(=O)c2sc3c(c21)COC(C)(C)C3`, active: 31.9%. As for `COc1ccc(NC(=O)CN2C(=O)C(c3ccccc3)=NC23CCC(C)CC3)cc1Cl` (stereo unspecified), the figure is 2.38%; as for `COc1ccccc1-c1c(C)[nH]n2c(=O)c(Cc3ccccc3)c(C)nc12`, active: 53.7%; as for `CCOCCCNC(=O)CN1C(=O)CCn2nc(-c3cccn3C)cc21`, 14.1%. As for `COc1cc2[nH]c(=O)n(CCCC(=O)N(C)Cc3ccccc3)c(=O)c2cc1OC`, the figure is -4.72%; as for `CCc1ccccc1NC(=O)Cn1nc(C)c2nn(-c3ccc(Cl)cc3)c(C)c2c1=O`, -21.1%.

For the molecule `Oc1ccc(C2CNCc3sccc32)cc1O` (stereo unspecified), the inhibition was active: 95.8%. For the molecule `CCOC(=O)c1ccc(N2C(=O)c3n[nH]c(C)c3C2c2ccc(CC)cc2)cc1` (stereo unspecified), the inhibition was determined as 5.35%.

`COC(=O)c1cc2occc2n1Cc1nc(-c2ccc(Cl)cc2)oc1C`: the inhibition was 1.56%.

`Cc1ccc(NC(=O)Cn2cc(S(=O)(=O)Cc3ccccc3)c3ccccc32)cc1C`: the inhibition turned out to be 5.04%. As for `CCc1ccc(S(=O)(=O)c2cn(C)c3ccc(C)cc3c2=O)cc1`, the figure is -7.1%. Turning to `CCCCN(CC)CCCNC(=O)c1sc2nc3n(c(=O)c2c1C)CCCCC3`, the inhibition was -5.52%. As for `Cc1ccc(CCNC(=O)CCCn2c(=O)c3cccn3c3ccc(F)cc32)cc1`, the figure is 8.49%. Regarding `O=C(CN1C(=O)COc2ccc(Cl)cc21)Nc1cccc(C(=O)O)c1`, the inhibition was -10.6%. In the case of `CCn1c2ccccc2c2cc(CNCc3ccc(OC)cc3OC)ccc21`, the inhibition is active: 35%.

As to `COCCNC(=O)c1cc(-c2cccc(Cl)c2)on1`, the inhibition is -7.57%. `CC1CCc2nc3ncn(Cc4cccc(F)c4)c(=O)c3cc2C1` (stereo unspecified): the inhibition amounted to 10.9%.

For `COc1cccc(C(=O)NNC(=S)NC2CCCCC2)c1`, the inhibition was active: 30.7%. For the molecule `Cc1ccc(NC(=O)Cn2c(=O)n(CC(=O)NCCc3ccccc3)c(=O)c3ccccc32)cc1`, the inhibition amounted to 4.46%. Take `CCc1ccccc1NC(=O)Cn1nnc(C(=O)NCc2cccc(OC)c2)c1N`: the inhibition was found to be 3.37%.

With `COc1ccc(CNC(=O)CCc2c(C)nc3c4cccnc4nn3c2C)cc1`, the inhibition turned out to be 10.3%. For `COc1ccc(C)cc1-n1c(SCC(=O)NCc2ccco2)nc2c([nH]c3ccccc32)c1=O` the value was -0.26%; for `CCCCN(CC)CCCNC(=O)c1nn(-c2ccc(OC)cc2)c(=O)c2c1c1ccccc1n2C`, 15.8%; for `O=C(Nc1ncc(Cc2ccccc2Cl)s1)c1ccc2c(c1)CC(c1ccccc1)OC2=O` (stereo unspecified), -6.72%. For `CNC(=O)C1CCC(Cn2c(=O)c3sccc3n(CC(=O)Nc3ccccc3)c2=O)CC1` (stereo unspecified) the value was 5.44%. For `Cc1ccc(NC(=O)c2nc(S(C)(=O)=O)ncc2N(Cc2ccco2)Cc2ccco2)cc1` the value was 6.14%. For `Cc1ccc(OCCSc2nc3ccccc3n2CCC(=O)O)cc1`, the inhibition is -23.4%. As for `Cc1ccc(S(=O)(=O)c2nnn3c2nc(NC2CCCCC2)c2sccc23)cc1C`, the inhibition stood at 10.7%. As for `CN(Cc1ccccc1)c1nc2c(S(=O)(=O)c3ccccc3)nnn2c2ccsc12`, the figure is -2.42%; as for `Cc1c(C(=O)Nc2ccccc2F)sc2nc3n(c(=O)c12)CCC3`, 18%; as for `COc1ccc(NC(=O)CN2C(=O)C(=O)c3ccccc32)c(OC)c1`, -6.86%. On to `Cc1cc(C)cc(OCC(=O)N(Cc2ccco2)Cc2ccccc2Cl)c1`, for which the inhibition is -1.16%. As to `COc1ccccc1C(=O)N1CCC(N2CCN(c3ccccc3OC)CC2)CC1`, the inhibition is active: 37.7%. As for `CCOc1ccccc1CNC(=O)CN1C(=O)c2cccnc2Oc2ccc(C)cc21`, the figure is 13.3%; as for `O=C(Nc1ccc(Br)cc1)c1cc(S(=O)(=O)N2CCc3ccccc32)ccc1F`, -10.4%. On to `CCn1c(=O)c2sccc2n2c(CCCC(=O)Nc3ccc(Oc4ccccc4)cc3)nnc12`, for which the inhibition was -0.115%.

As to `COc1ccc(OC)c(NC(=O)N2CCC3(CC2)Oc2ccccc2C(=O)N3Cc2ccccc2F)c1`, the inhibition is -1.15%.

With `CCCCN(C)C(=O)c1ccc2c(c1)NC(=O)C(CC(C)C)N2` (stereo unspecified), the inhibition turned out to be 22.5%. As to `COc1ccc(-c2noc(CC(=O)N(C)c3cc(Cl)c(OC)cc3OC)n2)cc1`, the inhibition is -6.91%.

For the molecule `CCN1C(=O)C2(c3ccccc31)c1c(oc3ccccc3c1=O)C(=O)N2CCOC` (stereo unspecified), the inhibition was -6.53%.

Take `COc1ccc(N2CCN(C(=O)c3cn(C)c4ccc(S(=O)(=O)N5CCOCC5)cc4c3=O)CC2)cc1`: the inhibition was 2.77%.

As to `Cc1cc(Nc2cccc(Cl)c2)nc2ccc(NC(=O)Cc3c(F)cccc3Cl)cc12`, the inhibition came out at 7.46%.

Regarding `CCC1Oc2ccccc2N(CC(=O)NCc2ccccc2)C1=O` (stereo unspecified), the inhibition was -23.5%. For `Cn1c(=O)c(=O)n(C)c2cc(N3CCCC3)c(NC(=O)c3ccccc3Cl)cc21` the value was 5.54%; for `COc1ccc2nc(N(Cc3cccnc3)C(=O)c3ccc(Cl)cc3)sc2c1`, -13.7%; for `CCOc1ccccc1CNC(=O)CN1C(=O)c2cccnc2Oc2ccc(Cl)cc21`, -14.7%. Consider `COc1ccc(S(=O)(=O)N2CCCCC2)cc1C(=O)NC1CCS(=O)(=O)C1` (stereo unspecified), for which the inhibition is -0.47%. For `O=C(Nc1ccccc1)c1ccc(Cl)c(S(=O)(=O)Nc2ccccc2)c1` the value was 4.56%; for `Cc1ccc(C(=O)c2cn(Cc3ccccc3)c3c(F)cc(F)cc3c2=O)cc1`, -4.34%. In the case of `CCS(=O)(=O)N1CCC2(CC1)OC(=O)C(C)=C2C(=O)NCc1ccc(OC)c(OC)c1`, the inhibition turned out to be 3.9%. As for `Cc1cc(C)c(NC(=O)CN2C(=O)NC(CCc3ccccc3)C2=O)c(C)c1` (stereo unspecified), the figure is active: 31.7%; as for `Cn1c(=O)c2c(-c3ccc(Cl)cc3)ccnc2n(C)c1=O`, -0.972%; as for `NC(=O)C1CCN(S(=O)(=O)c2cc3c4c(c2)CCN4C(=O)CC3)CC1`, active: 30.3%.

Take `COc1ccc(OC)c(CCNc2nc3cc(OC)c(OC)cc3c3nc(-c4cccnc4)nn23)c1`: the inhibition was 3.75%. As for `CCCN1CCc2c(sc(NC(=S)NC(=O)c3ccccc3)c2C#N)C1`, the inhibition is active: 77.6%. Turning to `CCc1c(C)sc(NC(=O)c2cc(-c3ccc(OC)c(OC)c3)on2)c1C#N`, the inhibition was -4.75%. Take `COc1ccc(CCNC(=O)c2ccc3[nH]c(C)c(C)c3c2)cc1OC`: the inhibition was -8.88%. As for `CCS(=O)(=O)N1CCc2cc(C(=O)Nc3cc(C)cc(C)c3)ccc21`, the figure is -1.23%. As for `COC(=O)c1ccc2c(c1)N(CC(=O)Nc1ccc(C)c(C)c1)C(=O)c1ccccc1S2`, the figure is 20.6%; as for `Cc1csc(NC(=O)C2CCCN(S(=O)(=O)c3ccc(Br)s3)C2)n1` (stereo unspecified), active: 38.2%. Turning to `Cc1ccc(C)c(N2CCN(C(=O)NCc3noc4ccccc34)CC2)c1`, the inhibition is -15.4%. In the case of `Cc1ccc2nc(Nc3cccc(C(F)(F)F)c3)c3nnnn3c2c1`, the inhibition turned out to be 3.68%. In the case of `Cc1cc2oc(C(=O)Nc3sc4c(c3C(=O)NCC3CCCO3)CCCC4)cc(=O)c2cc1C` (stereo unspecified), the inhibition came out at 5.06%. For `Cc1cccn2c(=O)c3cc(C(=O)NCCc4ccc(S(N)(=O)=O)cc4)n(C)c3nc12` the value was -7.59%; for `CC(C)(C)c1ccc(OCC(=O)N(Cc2ccco2)Cc2ccccc2F)cc1`, 2.81%; for `COc1cc(OC)cc(-c2nnc(SCC(=O)N3CCC(C)CC3)o2)c1`, -3.95%.

For the molecule `CC(=O)c1ccc(NC(=O)Cn2c(-n3nc(C)cc3C)nc(C)cc2=O)cc1`, the inhibition is -9.67%. As for `COc1ccc(CCNC(=O)CCn2c(=O)c3ccccc3n(CC(=O)Nc3cccc(C)c3)c2=O)cc1OC`, the figure is 19.1%; as for `Cc1ccc2c(c1)cc1c(=O)n(CC(=O)NCc3ccco3)nc(C)n12`, -5.4%. As for `Cc1ccc(NC(=O)c2ccc([N+](=O)[O-])o2)c(C)c1`, the figure is active: 33.1%.

Turning to `Cn1c(SCC(=O)Nc2ccc(F)cc2)nc2c([nH]c3ccccc32)c1=O`, the inhibition was -5.46%. For the molecule `COc1cccc(-c2cc(C(=O)NCc3ccccc3)[nH]n2)c1`, the inhibition came out at 0.0713%.

With `CCOc1ccc(C(C)C)cc1S(=O)(=O)Nc1cccc(-c2ccc(N3CCOCC3)nn2)c1`, the inhibition was -3.68%. As for `CCN(C(=O)c1cc(S(=O)(=O)N2CCOCC2)cn1C)c1ccc(OC)cc1`, the figure is 5.11%. For `Cc1ccc(NC(=O)C(Cc2ccccc2)NS(=O)(=O)c2ccc3c(c2)c(=O)n(C)c(=O)n3C)cc1` (stereo unspecified) the value was -2.76%; for `COCCN=c1scc(-c2cccs2)n1/N=C/c1ccc(O)c(O)c1O`, active: 73.3%. `Cc1ccc(CN2C(=O)c3ccccc3S(=O)(=O)c3ccc(C(=O)OCC4CCCO4)cc32)cc1` (stereo unspecified): the inhibition was -1.09%.

As to `Cn1cc(C(=O)O)c(=O)c2cc(S(=O)(=O)N3CCCCC3)ccc21`, the inhibition turned out to be 2.69%. For `CCOc1nc(NC(=O)NS(=O)(=O)Oc2ccc(Cl)cc2)nc(-c2ccccc2)n1` the value was -1.76%; for `COc1cccc(NC(=O)CN(C)C(=O)c2cccc(NS(=O)(=O)c3ccccc3)c2)c1`, active: 31.7%. On to `CCCC(=O)Oc1c(Sc2ccc(Cl)cc2)c(C)nn1-c1ccccc1`, for which the inhibition worked out at 2.04%. Consider `CCCCN(CC)CCCn1cnc2c([nH]c3ccc(Cl)cc32)c1=O`, for which the inhibition stood at 6.31%.

With `CCC(=O)Nc1ccccc1-c1nc2ccccc2n(C(CC)C(=O)Nc2cccc(C(C)=O)c2)c1=O` (stereo unspecified), the inhibition is 5.54%. On to `CC(C)(C)C1CCc2nc(NC(=O)COc3ccc(F)cc3)sc2C1` (stereo unspecified), for which the inhibition was 7.53%. Take `CC(=O)Nc1ccc(-n2cc3c(c2-c2ccc(C)cc2)c(=O)n(C)c(=O)n3C)cc1`: the inhibition was -2.64%.
